# According to article PMC10907753, “Structural insights into Xanthomonas campestris pv. campestris NAD^+ biosynthesis via the NAM salvage pathway” (Communications Biology, 2024):
# B1: Xanthomonas campestris pv. campestris nicotinamide phosphoribosyltransferase (Xcc NAMPT), wild type (enzyme)
# chain: not shown
# notes: also called XC_0719; NadV; source: E. coli BL21(DE3), purified (Ni-NTA, anion exchange, gel filtration)
# Target: the molecule itself
# Experiment: SEC; analytical gel filtration, Superdex 200 Increase 10/300 GL, 16 °C, 20 mM Tris-HCl pH 8.0, 150 mM NaCl; apparent molecular weight against protein standards
protein,measurement,value
B1,stoichiometry N,2
